In the supplement of paper PMC8728848:
The other results are listed elsewhere or left out.

Legend:
Test in all cases: glycan array binding signal (z-score within array); higher = stronger binding
Conditions in all cases: glycan notation: IUPAC condensed, linker removed
Man(a1-2)Man(a1-3)Man = molecular target: Man(a1-2)Man(a1-3)Man
Procedure, shortened: (§1)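 The binding signal is a Z-score computed within each array and averaged over linkers. Arrays of the same protein sequence at different concentrations or buffers were also averaged together. Data originate from 3228 arrays in the Consortium for Functional Glycomics database, kept only where the protein sequence was available.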

[1] = molecular target: Man(a1-2)Man(a1-3)[Man(a1-2)Man(a1-6)]Man
Procedure, shortened: as §1

[2] = molecular target: Man(a1-2)Man(a1-3)[Man(a1-2)Man(a1-6)]Man(a1-6)[Man(a1-2)Man(a1-2)Man(a1-3)]Man
Procedure, shortened: as §1

[3] = molecular target: Man(a1-2)Man(a1-3)[Man(a1-2)Man(a1-6)]Man(a1-6)[Man(a1-2)Man(a1-2)Man(a1-3)]Man(b1-4)GlcNAc(b1-4)GlcNAc
Procedure, shortened: as §1

[4] = molecular target: Man(a1-2)Man(a1-3)[Man(a1-6)]Man(a1-6)[Man(a1-2)Man(a1-3)]Man(b1-4)GlcNAc(b1-4)GlcNAc
Procedure, shortened: as §1

[5] = molecular target: Man(a1-2)Man(a1-6)[Man(a1-3)]Man(a1-6)[Man(a1-2)Man(a1-2)Man(a1-3)]Man
Procedure, shortened: as §1

[6] = molecular target: Man(a1-2)Man(a1-6)[Man(a1-3)]Man(a1-6)[Man(a1-2)Man(a1-2)Man(a1-3)]Man(b1-4)GlcNAc(b1-4)GlcNAc
Procedure, shortened: as §1

Man(a1-3)[Man(a1-6)]Man = molecular target: Man(a1-3)[Man(a1-6)]Man
Procedure, shortened: as §1

[7] = molecular target: Man(a1-3)[Man(a1-6)]Man(a1-6)[Man(a1-2)Man(a1-3)]Man(b1-4)GlcNAc(b1-4)GlcNAc
Procedure, shortened: as §1

[8] = molecular target: Man(a1-3)[Man(a1-6)]Man(a1-6)[Man(a1-3)]Man
Procedure, shortened: as §1

[9] = molecular target: Man(a1-3)[Man(a1-6)]Man(a1-6)[Man(a1-3)]Man(b1-4)GlcNAc(b1-4)GlcNAc
Procedure, shortened: as §1

[10] = molecular target: Man(a1-3)[Man(a1-6)]Man(b1-4)GlcNAc(b1-4)GlcNAc
Procedure, shortened: as §1

[11] = molecular target: Man(a1-3)[Man(a1-6)]Man(b1-4)GlcNAc(b1-4)[Fuc(a1-6)]GlcNAc
Procedure, shortened: as §1

Man(a1-6)Man = molecular target: Man(a1-6)Man
Procedure, shortened: as §1

Man(b1-4)GlcNAc = molecular target: Man(b1-4)GlcNAc
Procedure, shortened: as §1

MurNAc(b1-4)GlcNAc = molecular target: MurNAc(b1-4)GlcNAc
Procedure, shortened: as §1

Neu5Ac(a2-3)Gal = molecular target: Neu5Ac(a2-3)Gal
Procedure, shortened: as §1

[12] = molecular target: Neu5Ac(a2-3)Gal(b1-3)GalNAc
Procedure, shortened: as §1

[13] = molecular target: Neu5Ac(a2-3)Gal(b1-3)GalNAc(b1-3)Gal(a1-4)Gal(b1-4)Glc
Procedure, shortened: as §1

[14] = molecular target: Neu5Ac(a2-3)Gal(b1-3)GalNAc(b1-3)Gal(b1-4)GlcNAc
Procedure, shortened: as §1

[15] = molecular target: Neu5Ac(a2-3)Gal(b1-3)GalNAc(b1-4)[Neu5Ac(a2-3)]Gal(b1-4)Glc
Procedure, shortened: as §1

[16] = molecular target: Neu5Ac(a2-3)Gal(b1-3)GalNAc(b1-4)[Neu5Ac(a2-8)Neu5Ac(a2-3)]Gal(b1-4)Glc
Procedure, shortened: as §1

[17] = molecular target: Neu5Ac(a2-3)Gal(b1-3)GalNAc6S
Procedure, shortened: as §1

[18] = molecular target: Neu5Ac(a2-3)Gal(b1-3)GlcNAc
Procedure, shortened: as §1

[19] = molecular target: Neu5Ac(a2-3)Gal(b1-3)GlcNAc(b1-2)Man
Procedure, shortened: as §1

[20] = molecular target: Neu5Ac(a2-3)Gal(b1-3)GlcNAc(b1-2)Man(a1-3)[GlcNAc(b1-4)][Neu5Ac(a2-3)Gal(b1-3)GlcNAc(b1-2)Man(a1-6)]Man(b1-4)GlcNAc(b1-4)GlcNAc
Procedure, shortened: as §1

[21] = molecular target: Neu5Ac(a2-3)Gal(b1-3)GlcNAc(b1-2)Man(a1-3)[Neu5Ac(a2-3)Gal(b1-3)GlcNAc(b1-2)Man(a1-6)]Man(b1-4)GlcNAc(b1-4)GlcNAc
Procedure, shortened: as §1

[22] = molecular target: Neu5Ac(a2-3)Gal(b1-3)GlcNAc(b1-3)Gal(b1-3)GlcNAc
Procedure, shortened: as §1

[23] = molecular target: Neu5Ac(a2-3)Gal(b1-3)GlcNAc(b1-3)Gal(b1-4)GlcNAc
Procedure, shortened: as §1

[24] = molecular target: Neu5Ac(a2-3)Gal(b1-3)GlcNAc(b1-3)GalNAc
Procedure, shortened: as §1

[25] = molecular target: Neu5Ac(a2-3)Gal(b1-3)GlcNAc(b1-4)Gal(b1-4)Glc
Procedure, shortened: as §1

[26] = molecular target: Neu5Ac(a2-3)Gal(b1-3)GlcNAc(b1-6)GalNAc
Procedure, shortened: as §1

[27] = molecular target: Neu5Ac(a2-3)Gal(b1-3)GlcNAc6S
Procedure, shortened: as §1

[28] = molecular target: Neu5Ac(a2-3)Gal(b1-3)[Fuc(a1-4)]GlcNAc
Procedure, shortened: as §1

[29] = molecular target: Neu5Ac(a2-3)Gal(b1-3)[Fuc(a1-4)]GlcNAc(b1-3)Gal(b1-3)[Fuc(a1-4)]GlcNAc
Procedure, shortened: as §1

[30] = molecular target: Neu5Ac(a2-3)Gal(b1-3)[Fuc(a1-4)]GlcNAc(b1-3)Gal(b1-4)[Fuc(a1-3)]GlcNAc
Procedure, shortened: as §1

[31] = molecular target: Neu5Ac(a2-3)Gal(b1-3)[GlcNAc(b1-6)]GalNAc
Procedure, shortened: as §1

B1: MAL-II (Maackia amurensis), P93248 (protein)
chain: ATSNSKPTQVLLATFLTFFFLLLNNVNSSDELSFTINNFVPNEADLLFQGEASVSSTGVLQLTRVENGQPQQYSVGRALYAAPVRIWDNTTGSVASFSTSFTFVVKAPNPTITSDGLAFFLAPPDSQIPSGRVSKYLGLFNNSNSDSSNQIVAVEFDTYFGHSYDPWDPNYRHIGIDVNGIESIKTVQWDWINGGVAFATITYLAPNKTLIASLVYPSNQTSFIVAASVDLKEILPEWVRVGFSAATGYPTQVETHDVLSWSFTSTLEANSDAATENNVHIARYTA
Man(a1-2)Man(a1-3)Man
  glycan array binding signal (z-score): -0.138
[1]
  glycan array binding signal (z-score): -0.221
[2]
  glycan array binding signal (z-score): -0.164
[3]
  glycan array binding signal (z-score): -0.125
[4]
  glycan array binding signal (z-score): -0.217
[5]
  glycan array binding signal (z-score): -0.175
[6]
  glycan array binding signal (z-score): -0.186
Man(a1-3)[Man(a1-6)]Man
  glycan array binding signal (z-score): -0.124
[7]
  glycan array binding signal (z-score): -0.082
[8]
  glycan array binding signal (z-score): -0.133
[9]
  glycan array binding signal (z-score): -0.107
[10]
  glycan array binding signal (z-score): -0.165
[11]
  glycan array binding signal (z-score): -0.337
Man(a1-6)Man
  glycan array binding signal (z-score): -0.203
Man(b1-4)GlcNAc
  glycan array binding signal (z-score): -0.19
MurNAc(b1-4)GlcNAc
  glycan array binding signal (z-score): -0.194
Neu5Ac(a2-3)Gal
  glycan array binding signal (z-score): -0.204
[12]
  glycan array binding signal (z-score): 3.54
[13]
  glycan array binding signal (z-score): -0.099
[14]
  glycan array binding signal (z-score): -0.199
[15]
  glycan array binding signal (z-score): 0.331
[16]
  glycan array binding signal (z-score): -0.113
[17]
  glycan array binding signal (z-score): 5.77
[18]
  glycan array binding signal (z-score): -0.139
[19]
  glycan array binding signal (z-score): 0.033
[20]
  glycan array binding signal (z-score): -0.155
[21]
  glycan array binding signal (z-score): -0.073
[22]
  glycan array binding signal (z-score): -0.183
[23]
  glycan array binding signal (z-score): -0.189
[24]
  glycan array binding signal (z-score): -0.143
[25]
  glycan array binding signal (z-score): -0.215
[26]
  glycan array binding signal (z-score): -0.245
[27]
  glycan array binding signal (z-score): -0.11
[28]
  glycan array binding signal (z-score): -0.196
[29]
  glycan array binding signal (z-score): -0.191
[30]
  glycan array binding signal (z-score): -0.221
[31]
  glycan array binding signal (z-score): 3.23
